Some of the results follow. Most values come without repeats; read them as rough.
system: A549; test: cell-surface PD-L1 MFI ratio relative to radiation alone (isotype-subtracted); higher = higher PD-L1 surface expression; details: inducer: radiation 8 Gy; 10 µM; 24 h
Method: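 A549 and H460 NSCLC cells were treated with each library drug at 10 uM, then with radiation (8 Gy) or cisplatin (4 uM), and incubated for 24 h. Cell-surface PD-L1 was measured by flow cytometry as an MFI ratio: (MFI drug+inducer - MFI isotype)/(MFI inducer alone - MFI isotype). Hits were defined as ratio < 0.75.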
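Also: surface PD-L1 on NSCLC cells stained with a PE-labelled anti-human PD-L1 antibody before flow cytometry, screening a library of roughly two hundred mostly kinase and epigenetic inhibitors.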

| SMILES | cell-surface PD-L1 MFI ratio |
| --- | --- |
| CCn1c2ccccc2c2cc(-n3nncc3-c3ccccc3)ccc21 | inactive: 1.91 |
| CC(=O)c1cnc2ccc(-c3cc(Cl)c(O)c(Cl)c3)nc2c1N[C@H]1CC[C@H](CN(C)C)CC1 | inactive: 2.21 |
| Cc1cc(C(C)Nc2ccccc2)c2nc(N3CCOCC3)cc(=O)n2c1 (stereo not given) | inactive: 1 |
| O=C(/C=C\n1cnc(-c2cc(C(F)(F)F)cc(C(F)(F)F)c2)n1)NNc1cnccn1 [Selinexor (KPT-330)] | inactive: 1.41 |
| C[C@@H](N)[C@H]1CC[C@H](C(=O)Nc2ccncc2)CC1 | inactive: 0.836 |
| O=C(NC[C@H](O)CN1CCc2ccccc2C1)c1cc(NC2COC2)ncn1 | active: 0.748 |
| CCc1cnn2c(NCc3ccc[n+]([O-])c3)cc(N3CCCC[C@H]3CCO)nc12 | inactive: 0.837 |
| Cc1cc(-c2ncc(CC(=O)Nc3ccc(-c4cnccn4)cn3)cc2C)ccn1 | inactive: 1.02 |
| CCC(C)(C)C(=O)O[C@H]1C[C@@H](C)C=C2C=C[C@H](C)[C@H](CC[C@@H]3C[C@@H](O)CC(=O)O3)[C@H]21 [Simvastatin] | inactive: 1.01 |
| CCOC(=O)C1=C(C)NC(=S)NC1c1cccc(O)c1 (stereo not given) [Monastrol] | active: 0.657 |
| C/C(=C\C(=O)Nc1ccccc1C(=O)O)c1ccc2ccccc2c1 | inactive: 1.08 |
| CC(C)(C)c1cc(NC(=O)Nc2ccc(-c3cn4c(n3)sc3cc(OCCN5CCOCC5)ccc34)cc2)no1 [Quizartinib (AC220)] | inactive: 0.922 |
| CN(C)c1cccc(-c2c3c(=O)n(-c4ccccc4Cl)[nH]c3cc(=O)n2C)c1 | inactive: 0.86 |
| COc1cc(N2CCN(C)CC2)ccc1Nc1nccc(-c2cn(C)c3cnccc23)n1 | inactive: 1.2 |
| CCOC(=O)CCNc1cc(N2CCc3ccccc3CC2)nc(-c2ccccn2)n1 | inactive: 0.934 |
| CC(C)CCN1c2nc(Nc3cc(F)c(O)c(F)c3)ncc2N(C)C(=O)C1C (stereo not given) | inactive: 1.27 |
| CNC(=O)c1cc(Oc2ccc(NC(=O)Nc3ccc(Cl)c(C(F)(F)F)c3)cc2)ccn1 [Sorafenib] | inactive: 1.22 |
| CN1C(=O)c2sccc2N(C)c2nc(Nc3ccc(S(N)(=O)=O)cc3)ncc21 | inactive: 1.52 |
| Cc1ccc(C(=O)c2cc(O)c(O)c([N+](=O)[O-])c2)cc1 [Tolcapone] | inactive: 1.58 |
| O=C(Nc1ccc2[nH]nc(-c3ccncc3)c2c1)[C@@H]1CCN(CC(=O)N2CCN(c3ccc(-c4ncccn4)cc3)CC2)C1 | inactive: 1.08 |

| SMILES | cell-surface PD-L1 MFI ratio |
| --- | --- |
| CC[C@H](C)C(=O)O[C@H]1C[C@@H](C)C=C2C=C[C@H](C)[C@H](CC[C@@H]3C[C@@H](O)CC(=O)O3)[C@H]21 [Lovastatin] | inactive: 1.17 |
| Nc1cccc(-c2cc3c(Oc4cccc(O)c4)ncnc3[nH]2)c1 | inactive: 0.803 |
| COc1ccc(-c2cc3nccn3c(Nc3ncccc3C(N)=O)n2)cc1OC | inactive: 0.83 |
| Cc1ccccc1C(=O)N1CCc2cc(-c3nc(NC(=O)Cc4ccc5c(c4)OCO5)sc3C)ccc21 | active: 0.69 |
| CC(C)(C)C[C@@H]1N[C@@H](C(=O)N[C@H]2CC[C@H](O)CC2)[C@H](c2cccc(Cl)c2F)[C@]12C(=O)Nc1cc(Cl)ccc12 | inactive: 0.843 |
| C[C@]1(O)C[C@@H](c2nc(-c3ccc4ccc(-c5ccccc5)nc4c3)c3c(N)nccn32)C1 [Linsitinib (OSI-906)] | inactive: 1.26 |
| CC1(C)CCC(CN2CCN(c3ccc(C(=O)NS(=O)(=O)c4ccc(NCC5CCOCC5)c([N+](=O)[O-])c4)c(Oc4cnc5[nH]ccc5c4)c3)CC2)=C(c2ccc(Cl)cc2)C1 [Venetoclax (ABT-199, GDC-0199)] | inactive: 1.41 |
| CC(C)c1c(C(=O)Nc2ccccc2)c(-c2ccccc2)c(-c2ccc(F)cc2)n1CC[C@@H](O)C[C@@H](O)CC(=O)O [Atorvastatin] | inactive: 0.997 |
| C[C@@H](Oc1ccc2[nH]nc(/C=C/c3cnn(CCO)c3)c2c1)c1c(Cl)cncc1Cl | inactive: 1.43 |
| Nc1ccccc1NC(=O)c1ccc(CNC(=O)OCc2cccnc2)cc1 [Entinostat (MS-275)] | inactive: 1.61 |
| O=C(CCCCCCC(=O)Nc1ccccc1)NO [Vorinostat (SAHA, MK0683)] | inactive: 1.38 |
| CO[C@H]1C[C@@H]2CC[C@@H](C)[C@@](O)(O2)C(=O)C(=O)N2CCCC[C@H]2C(=O)O[C@H]([C@H](C)C[C@@H]2CC[C@@H](O)[C@H](OC)C2)CC(=O)[C@H](C)/C=C(\C)[C@@H](O)[C@@H](OC)C(=O)[C@H](C)C[C@H](C)/C=C/C=C/C=C/1C [Rapamycin (Sirolimus)] | inactive: 1.14 |
| Cc1cccc(CC(=O)N2CCc3c2ccc(-c2cn(C)c4ncnc(N)c24)c3F)n1 | inactive: 0.918 |
| Nc1ccc(C(=O)Nc2cccc(-c3nc(N4CCOCC4)c4oc5ncccc5c4n3)c2)cn1 | active: 0.549 |
| COc1cc2nc(N3CCCN(C)CC3)nc(NC3CCN(Cc4ccccc4)CC3)c2cc1OC | inactive: 1.78 |
| Cc1[nH]c(/C=C2\C(=O)Nc3ccccc32)c(C)c1CCC(=O)O [Orantinib (TSU-68, SU6668)] | inactive: 1.08 |
| COc1ccc(N2C(=O)/C(=C\c3ccc([N+](=O)[O-])s3)SC2=S)cc1 | inactive: 2.99 |
| CC(C)N(C[C@H]1O[C@@H](n2cnc3c(N)ncnc32)[C@H](O)[C@@H]1O)[C@H]1C[C@@H](CCc2nc3cc(C(C)(C)C)ccc3[nH]2)C1 [Pinometostat (EPZ5676)] | active: 0.63 |
| Cc1cnc(-c2cnc(NCCNc3ccc(C#N)cn3)nc2-c2ccc(Cl)cc2Cl)[nH]1 | inactive: 0.819 |
| O=C(O)CCCc1cc2cc(Cl)ccc2n1S(=O)(=O)c1ccc2ncsc2c1 [Lanifibranor(IVA-337)] | inactive: 1.14 |

Reference: the supplement of paper PMC8792480
